In the supplement of paper PMC10369915:
The other results are listed elsewhere or left out. Cut-off read from the data, not from the text of the source: active = 3.2 or more and inactive = the rest. Only a few entries rise above the background.

B1: GHR_Y86 (peptide)
chain: PIQLFYTRRNT
B2: GIGYF2_Y1168 (peptide)
chain: EVESPYEVHDY
B3: GIGYF2_Y1168_H1171R (peptide)
chain: EVESPYEVRDY
B4: GIGYF2_Y1168_H1171R_YF (peptide)
chain: EVESPYEVRDF
B5: GIGYF2_Y1168_YF (peptide)
chain: EVESPYEVHDF
B6: GIGYF2_Y268_S273C (peptide)
chain: DDERGYRRVRC
B7: GINS1_Y156 (peptide)
chain: RCLKDYGEFEV
B8: GJA1_Y137 (peptide)
chain: IKKFKYGIEEH
B9: GJA1_Y137_G138R (peptide)
chain: IKKFKYRIEEH
B10: GJA1_Y137_K134N (peptide)
chain: IKNFKYGIEEH
B11: GJA1_Y286_P283L (peptide)
chain: MSLPGYKLVTG
B12: GJB1_Y243 (peptide)
chain: RLSPEYKQNEI
B13: GJB1_Y243_L239I (peptide)
chain: RISPEYKQNEI
B14: GJB3_Y16 (peptide)
chain: SGVNKYSTAFG
B15: GLB1_Y154 (peptide)
chain: SSDPDYLAAVD
B16: GLB1_Y154_D151Y (peptide)
chain: SSYPDYLAAVD
B17: GLB1_Y154_D151Y_YF (peptide)
chain: SSFPDYLAAVD
B18: GLB1_Y154_S149F (peptide)
chain: FSDPDYLAAVD
B19: GLB1_Y485_YF (peptide)
chain: MGRVNYGAFIN

Molecular target: SHP2 C-SH2 domain E139D
Assay: enrichment score (SH2-bound / input frequency) (ratio); bacterial display of known human phosphotyrosine sites (pTyr-Var adds point mutants) read by sequencing; higher = stronger binding; tyrosines were phosphorylated by kinases first
Settings: peptide library: pTyr-Var
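Note: displayed peptides selected on beads carrying the immobilized SH2 domain, with library peptides lacking any tyrosine serving as negative controls.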

Enrichment score, inactive:
B1 0.282
B2 0.452
B3 0.639
B4 0.774
B5 0.666
B6 0.609
B7 0.988
B8 0.715
B9 0.669
B10 0.794
B11 0.918
B12 0.635
B13 0.648
B14 0.921
B15 0.638
B16 1.1
B17 0.836
B18 0.601
B19 1.16

Molecular target: SHP2 C-SH2 domain wild-type
Assay: as above
Settings: peptide library: pTyr-Var

Enrichment score, inactive:
B1 0.278
B2 0.671
B3 0.653
B4 0.682
B5 0.777
B6 0.677
B7 1.07
B8 0.683
B9 0.672
B10 0.583
B11 0.824
B12 0.659
B13 0.595
B14 0.648
B15 0.585
B16 0.925
B17 0.685
B18 0.468
B19 1.06

Molecular target: SHP2 N-SH2 domain L43F
Assay: as above
Settings: peptide library: pTyr-Var

Enrichment score, inactive:
B1 0.247
B2 0.537
B3 0.473
B4 0.77
B5 0.76
B6 0.565
B7 1.13
B8 0.536
B9 0.644
B10 0.58
B11 0.903
B12 0.79
B13 0.74
B14 0.762
B15 0.592
B16 1.04
B17 0.664
B18 0.56
B19 1.03

Molecular target: SHP2 N-SH2 domain T42A
Assay: as above
Settings: peptide library: pTyr-Var

Enrichment score, inactive:
B1 0.293
B2 0.589
B3 0.491
B4 0.701
B5 0.754
B6 0.582
B7 0.772
B8 0.639
B9 0.623
B10 0.505
B11 0.884
B12 0.413
B13 0.542
B14 0.577
B15 0.562
B16 0.672
B17 0.609
B18 0.452
B19 1.1

Molecular target: SHP2 N-SH2 domain T52S
Assay: as above
Settings: peptide library: pTyr-Var

Enrichment score, inactive:
B1 0.292
B2 0.604
B3 0.594
B4 0.708
B5 0.733
B6 0.603
B7 1
B8 0.707
B9 0.723
B10 0.655
B11 1.09
B12 0.856
B13 0.644
B14 0.669
B15 0.471
B16 0.846
B17 0.664
B18 0.582
B19 1.07

Molecular target: SHP2 N-SH2 domain wild-type
Assay: as above
Settings: peptide library: pTyr-Var

Enrichment score, inactive:
B1 0.199
B2 0.691
B3 0.64
B4 0.703
B5 0.854
B6 0.65
B7 1.09
B8 0.887
B9 0.927
B10 0.807
B11 0.982
B12 0.609
B13 0.611
B14 0.779
B15 0.573
B16 0.804
B17 0.849
B18 0.575
B19 1.08
